{"source": "paper PMC6403371", "about": "“Local unfolding of the HSP27 monomer regulates chaperone activity” (Nature Communications, 2019)", "target": "the molecule itself", "test": "15N NMR relaxation (rotational correlation time); 1 mM oxidised cHSP27 in NMR buffer, 25 °C, 11.7 and 14.1 T; axially symmetric diffusion tensor, ModelFree"}
{"protein": "cHSP27 (α-crystallin domain of HSP27, […]) (domain or fragment, intermolecular disulphide bond at C137 in the oxidised state, HSP27 (HSPB1), human, […]; the glycine left after TEV cleavage is G84 of HSP27; Studied oxidised (no reducing agent) and reduced (250 μM DTT or 5 mM BME); also called ACD; WT cHSP27; source: E. coli, purified (Ni2+ column, TEV cleavage, reverse Ni2+, SEC); not shown: His6, N-terminal, cleaved) not shown", "values": [{"measurement": "stoichiometry N", "result": 2}]}
